No constants are given. Whether binding was seen depends on the method and setting. In cells and extracts the contact can be indirect. Some results given as binding are weak or reduced against the parent protein; the word gives no strength. For some of these results: Where a sequence is shown, tags or fusion partners need not be part of it.
Assays:
[1] = target: Abi-1 (endogenous, mouse) (mouse (endogenous in NIH3T3 and mouse brain)) (UniProt Q8CBW3); assay: co-IP; mouse brain lysates; precipitated with anti-Abi-1 (1G9) or anti-NESH (2H7); overnight at 4 °C, protein G beads; Western blot
[2] = target: T1, NESH/Abi-3 (endogenous, mouse brain) (mouse (endogenous in mouse brain)) (UniProt Q8BYZ1); assay: as above
T1 sequence: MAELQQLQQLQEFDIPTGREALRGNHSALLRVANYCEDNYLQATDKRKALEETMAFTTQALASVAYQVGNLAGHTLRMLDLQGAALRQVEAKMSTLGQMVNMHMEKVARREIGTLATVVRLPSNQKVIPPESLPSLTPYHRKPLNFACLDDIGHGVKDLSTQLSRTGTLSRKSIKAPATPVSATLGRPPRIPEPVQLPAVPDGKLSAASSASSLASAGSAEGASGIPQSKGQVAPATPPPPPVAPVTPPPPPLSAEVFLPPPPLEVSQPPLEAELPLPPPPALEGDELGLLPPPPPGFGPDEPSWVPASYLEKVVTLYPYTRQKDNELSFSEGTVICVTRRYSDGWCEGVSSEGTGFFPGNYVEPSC

The chains behind the UniProt entries cited, without tags or fusion partners.
UniProt Q8CBW3: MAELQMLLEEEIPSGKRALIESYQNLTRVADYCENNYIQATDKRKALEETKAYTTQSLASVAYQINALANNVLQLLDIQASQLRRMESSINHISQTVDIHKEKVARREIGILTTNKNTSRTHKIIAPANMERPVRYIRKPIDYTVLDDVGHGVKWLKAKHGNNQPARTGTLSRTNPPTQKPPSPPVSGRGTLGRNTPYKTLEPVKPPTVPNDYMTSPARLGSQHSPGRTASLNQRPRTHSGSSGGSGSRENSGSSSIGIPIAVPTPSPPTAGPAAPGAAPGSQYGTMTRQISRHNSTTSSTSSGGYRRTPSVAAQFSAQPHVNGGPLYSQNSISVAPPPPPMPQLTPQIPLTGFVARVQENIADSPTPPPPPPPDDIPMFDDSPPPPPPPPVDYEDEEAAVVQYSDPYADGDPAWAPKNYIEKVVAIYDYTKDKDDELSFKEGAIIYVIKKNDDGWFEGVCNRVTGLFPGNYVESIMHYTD
UniProt Q8IZP0: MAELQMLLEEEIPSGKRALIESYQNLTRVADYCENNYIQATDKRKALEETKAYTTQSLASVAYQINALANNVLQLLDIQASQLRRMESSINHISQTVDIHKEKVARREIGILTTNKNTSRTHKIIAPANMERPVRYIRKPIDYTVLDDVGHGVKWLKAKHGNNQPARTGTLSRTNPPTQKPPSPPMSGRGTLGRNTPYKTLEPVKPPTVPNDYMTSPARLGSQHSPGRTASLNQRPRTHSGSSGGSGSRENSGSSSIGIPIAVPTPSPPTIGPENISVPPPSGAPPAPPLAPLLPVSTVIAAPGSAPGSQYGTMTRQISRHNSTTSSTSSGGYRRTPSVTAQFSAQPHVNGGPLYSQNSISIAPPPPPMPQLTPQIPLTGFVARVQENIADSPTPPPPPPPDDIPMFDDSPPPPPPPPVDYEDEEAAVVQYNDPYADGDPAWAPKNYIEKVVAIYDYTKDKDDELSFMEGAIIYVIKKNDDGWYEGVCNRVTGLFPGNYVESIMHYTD
UniProt P00520: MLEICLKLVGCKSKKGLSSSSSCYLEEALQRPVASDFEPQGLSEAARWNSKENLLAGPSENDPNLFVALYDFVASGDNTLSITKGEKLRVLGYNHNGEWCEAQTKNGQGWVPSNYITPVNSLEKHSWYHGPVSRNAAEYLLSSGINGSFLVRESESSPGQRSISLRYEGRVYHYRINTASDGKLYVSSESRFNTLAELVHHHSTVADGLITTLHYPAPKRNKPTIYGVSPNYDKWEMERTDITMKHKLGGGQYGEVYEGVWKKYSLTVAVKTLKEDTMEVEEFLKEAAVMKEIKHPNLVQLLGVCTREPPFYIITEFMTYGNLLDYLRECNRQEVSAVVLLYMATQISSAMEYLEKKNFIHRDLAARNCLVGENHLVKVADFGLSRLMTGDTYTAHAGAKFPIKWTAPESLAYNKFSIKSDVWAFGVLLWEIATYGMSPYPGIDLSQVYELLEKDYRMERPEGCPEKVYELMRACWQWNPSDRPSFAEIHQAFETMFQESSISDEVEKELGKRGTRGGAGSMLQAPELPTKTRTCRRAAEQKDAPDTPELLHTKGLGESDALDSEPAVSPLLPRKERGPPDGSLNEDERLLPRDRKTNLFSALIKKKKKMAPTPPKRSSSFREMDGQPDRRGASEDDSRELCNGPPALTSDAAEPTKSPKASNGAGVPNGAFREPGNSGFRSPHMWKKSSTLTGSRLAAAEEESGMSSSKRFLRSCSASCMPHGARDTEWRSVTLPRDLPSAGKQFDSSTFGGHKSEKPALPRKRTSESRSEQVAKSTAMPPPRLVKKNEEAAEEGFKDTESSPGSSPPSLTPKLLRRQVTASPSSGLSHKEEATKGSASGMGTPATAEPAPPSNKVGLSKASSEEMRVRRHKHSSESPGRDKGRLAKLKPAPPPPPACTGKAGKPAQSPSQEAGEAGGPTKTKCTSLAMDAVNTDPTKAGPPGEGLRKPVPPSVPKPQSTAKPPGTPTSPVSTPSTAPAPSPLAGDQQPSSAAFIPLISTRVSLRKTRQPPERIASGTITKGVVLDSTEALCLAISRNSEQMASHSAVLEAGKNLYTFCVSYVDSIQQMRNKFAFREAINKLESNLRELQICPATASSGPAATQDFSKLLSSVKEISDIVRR

[3] = target: Abi-1 (endogenous, mouse) (mouse (endogenous in NIH3T3 and mouse brain)) (UniProt Q8CBW3); assay: co-IP; lysates of control and FLAG-NESH-expressing NIH3T3 cells; precipitated with anti-Abi-1 (1G9), anti-NESH (2H7) or anti-FLAG (M2); overnight at 4 °C, protein G beads; Western blot
[4] = target: FLAG-tagged NESH/Abi-3 stably expressed in NIH3T3 cells (human) (UniProt Q9P2A4); assay: as above
[5] = target: Abi-1 (endogenous, HUVEC) (human (endogenous in HUVEC)) (UniProt Q8IZP0); assay: co-IP; HUVEC lysates; precipitated with anti-Abi-1 (1G9) or a rabbit anti-human NESH antibody; overnight at 4 °C, protein G beads; Western blot

binding [1] | binding [2] | binding [3] | binding [4] | binding [5] | Substance
binds | binds | binds | binds | – | WAVE2 (endogenous, mouse) (from UniProt Q8BH43 1-497)
– | – | – | – | binds | WAVE2 (endogenous, HUVEC) (from UniProt Q9Y6W5 1-498)
no binding | no binding | – | – | – | c-Abl (endogenous, mouse brain) (from UniProt P00520 1-1123)

— publication PMC4589964
